Results taken from PMC4081100.
The entries are a selection whose mix differs from that of the whole data set. For some assays here: At the low end of the ranking the order means little. The list shows a part of the results. For some assays here: The source does not settle which construct or isoform was used.

What was measured:
Experiment in all cases: universal protein binding microarray (PBM)
Conditions in all cases: transcription factors of Arabidopsis thaliana; high values mean tight binding; most listed sequences are background and not binding sites; double strand, one strand shown
GST-ANAC019 NAC domain = biological target: T1, GST-ANAC019 NAC domain (UniProt Q9C932)
T1 sequence: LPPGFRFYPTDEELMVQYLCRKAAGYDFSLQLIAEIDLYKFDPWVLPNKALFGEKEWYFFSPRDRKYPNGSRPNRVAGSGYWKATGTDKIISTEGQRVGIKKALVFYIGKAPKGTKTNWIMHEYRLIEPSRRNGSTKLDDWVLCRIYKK

GST-NAP(1-166) = biological target: T2, GST-NAP(1-166) (UniProt O49255)
T2 sequence: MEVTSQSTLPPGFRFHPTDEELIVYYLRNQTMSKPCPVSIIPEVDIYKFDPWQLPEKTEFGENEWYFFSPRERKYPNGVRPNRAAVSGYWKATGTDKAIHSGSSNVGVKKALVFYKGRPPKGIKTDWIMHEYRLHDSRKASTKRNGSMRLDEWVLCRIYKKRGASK

GST-NTL8 NAC domain = biological target: T3, GST-NTL8 NAC domain (UniProt Q9XIN7)
T3 sequence: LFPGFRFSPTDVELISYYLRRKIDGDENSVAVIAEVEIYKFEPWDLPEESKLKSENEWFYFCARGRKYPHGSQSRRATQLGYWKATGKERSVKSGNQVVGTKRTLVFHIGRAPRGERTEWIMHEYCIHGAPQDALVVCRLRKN

GST-VND3 NAC domain = biological target: T4, GST-VND3 NAC domain (UniProt Q9FH59)
T4 sequence: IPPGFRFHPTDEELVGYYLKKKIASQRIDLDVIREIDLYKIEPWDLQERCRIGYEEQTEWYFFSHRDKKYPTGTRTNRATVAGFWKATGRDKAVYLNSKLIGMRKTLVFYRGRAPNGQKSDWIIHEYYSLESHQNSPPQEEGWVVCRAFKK

[1] = biological target: T5, GST-VOZ2 (Arabidopsis thaliana) (UniProt Q9SLB9)
T5 sequence: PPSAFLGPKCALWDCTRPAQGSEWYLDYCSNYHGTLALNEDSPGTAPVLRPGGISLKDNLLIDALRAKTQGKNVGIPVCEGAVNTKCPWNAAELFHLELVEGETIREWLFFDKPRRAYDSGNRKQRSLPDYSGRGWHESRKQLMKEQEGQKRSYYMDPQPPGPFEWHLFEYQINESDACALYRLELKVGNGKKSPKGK

GST-WRKY1(266-371) = GST-WRKY1(266-371) (UniProt Q9SI37)
GST-ATAF1 NAC domain = biological target: T6, GST-ATAF1 NAC domain (UniProt Q39013)
T6 sequence: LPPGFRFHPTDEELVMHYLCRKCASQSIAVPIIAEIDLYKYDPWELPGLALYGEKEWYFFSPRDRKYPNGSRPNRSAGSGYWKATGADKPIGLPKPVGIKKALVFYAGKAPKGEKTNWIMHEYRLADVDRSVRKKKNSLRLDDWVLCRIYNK

[2] = biological target: T7, GST-ANAC092(1-285) full length (UniProt Q9FKA0)
T7 sequence: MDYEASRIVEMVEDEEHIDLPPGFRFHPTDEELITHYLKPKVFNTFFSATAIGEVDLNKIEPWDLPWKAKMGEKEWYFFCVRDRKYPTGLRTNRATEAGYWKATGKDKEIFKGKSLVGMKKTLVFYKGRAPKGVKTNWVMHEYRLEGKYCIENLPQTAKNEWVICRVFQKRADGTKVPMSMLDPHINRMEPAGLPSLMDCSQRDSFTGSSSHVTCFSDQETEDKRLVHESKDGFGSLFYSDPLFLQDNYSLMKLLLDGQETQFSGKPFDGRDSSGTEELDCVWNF

GST-NTL6(1-168) = GST-NTL6(1-168) (UniProt Q9SCK6)
GST-ANAC055(1-171) = biological target: T8, GST-ANAC055(1-171) (UniProt Q9LDY8)
T8 sequence: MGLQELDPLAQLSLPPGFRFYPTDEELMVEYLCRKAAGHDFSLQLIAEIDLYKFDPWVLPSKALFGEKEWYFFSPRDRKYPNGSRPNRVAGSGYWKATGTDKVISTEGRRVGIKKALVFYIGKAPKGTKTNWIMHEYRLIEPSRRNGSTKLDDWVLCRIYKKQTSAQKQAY

GST-NST2(1-184) = biological target: T9, GST-NST2(1-184) (UniProt Q9M274)
T9 sequence: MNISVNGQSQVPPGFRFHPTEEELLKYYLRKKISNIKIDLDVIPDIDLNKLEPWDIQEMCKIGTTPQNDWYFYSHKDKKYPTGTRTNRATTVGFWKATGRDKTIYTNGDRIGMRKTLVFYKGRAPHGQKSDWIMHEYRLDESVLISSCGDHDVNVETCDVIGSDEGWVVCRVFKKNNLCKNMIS

Sequence	binding signal (GST-ANAC019 NAC domain)	binding signal (GST-NAP(1-166))	binding signal (GST-NTL8 NAC domain)	binding signal (GST-VND3 NAC domain)	binding signal [1]	binding signal (GST-WRKY1(266-371))	binding signal (GST-ATAF1 NAC domain)	binding signal [2]	binding signal (GST-NTL6(1-168))	binding signal (GST-ANAC055(1-171))	binding signal (GST-NST2(1-184))
AAGTAATC	0.144 E-score	-0.0122 E-score	0.328 E-score	0.188 E-score	-0.0442 E-score	-0.0652 E-score					
ACCTTAAC	0.0497 E-score	0.0261 E-score	0.16 E-score	0.156 E-score	0.0943 E-score	0.0435 E-score	0.155 E-score	0.147 E-score			
GTAAGGAA		0.268 E-score	0.392 E-score	0.231 E-score	0.159 E-score	0.0463 E-score			0.486 E-score		
CACGCTAA		0.0299 E-score	0.0471 E-score	0.0422 E-score	0.0699 E-score	-0.0903 E-score	-0.00971 E-score	0.471 E-score	0.0834 E-score	0.0365 E-score	
CCACACGC		0.169 E-score		0.163 E-score	0.195 E-score	-0.00534 E-score			0.0233 E-score		
GTAAGTAA		0.0288 E-score	0.195 E-score	0.279 E-score	0.156 E-score	0.122 E-score	0.245 E-score				0.239 E-score
AGGAAAGC		0.0763 E-score	0.436 E-score	0.00239 E-score	-0.00244 E-score	-0.126 E-score			0.253 E-score		
ACGCAAAC	0.391 E-score			0.378 E-score	0.164 E-score	-0.145 E-score	0.258 E-score		0.0288 E-score		0.357 E-score
AAACGTGT			0.0369 E-score	0.328 E-score	0.142 E-score	-0.0783 E-score					
GAAGGGAA	0.101 E-score	0.00645 E-score		0.0307 E-score	0.0922 E-score	-0.242 E-score	0.0169 E-score	0.0165 E-score		-0.0381 E-score	
ACGTAACG	0.436 E-score	0.411 E-score	0.118 E-score	0.359 E-score	-0.00534 E-score	0.078 E-score				0.389 E-score	0.272 E-score
TAGCGTAA			0.0186 E-score	0.297 E-score	0.317 E-score	-0.0948 E-score	0.281 E-score				
AGCGTAAA			0.0199 E-score	0.15 E-score	0.122 E-score	-0.0223 E-score	0.12 E-score		0.0346 E-score	0.026 E-score	
ATGCGTAA	0.00479 E-score	0.175 E-score	0.0345 E-score	0.217 E-score	0.137 E-score	-0.063 E-score	0.115 E-score		0.00976 E-score		
ACGTAACA			0.205 E-score	0.41 E-score	0.0617 E-score	0.0346 E-score		0.426 E-score	0.133 E-score		
GTGAAGAA				0.304 E-score	0.162 E-score	0.0465 E-score				0.215 E-score	
ACGCTTCC			0.0233 E-score	0.0151 E-score	0.0528 E-score	-0.165 E-score			0.0789 E-score		0.206 E-score
CACGTTAC			0.0995 E-score	0.319 E-score	0.0205 E-score	-0.0786 E-score			0.0274 E-score		
GGAAGTAA	0.151 E-score	-0.00424 E-score	0.203 E-score	0.133 E-score	0.00189 E-score	-0.0759 E-score			0.404 E-score		
